Values joined by “and” are separate entries in the source; they are usually repeats but may differ in a detail not shown here. Equal values may be shown once.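 Where inhibition never reached the appropriate level, the endpoint shown equals the highest concentration tested. Otherwise, values were interpolated linearly from a five-concentration, 48-hour dose response in 96-well plates. The concentration for 50% growth inhibition is given as GI50. TGI is the concentration that stops growth completely.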 Numbered stars: 1 amine (or outer) side, 2 acyl side, 3 side chain; on linkers, the order of the positions; unused ones are H or OH. Bridge positions count the residues as written; N and C are the ends. Square brackets hold non-standard residues; d marks the D form. Peptide text beside a SMILES is read from it. * marks the point of attachment. X35 = CC[C@H](C)[C@@H](N[*:1])[C@@H](O)CC(=O)[*:2]; NMeY = CN[C@@H](Cc1ccc(O)cc1)C(=O)O; dNMeL = CN[C@H](CC(C)C)C(=O)O; Hiv = CC(C)[C@H](O)C(=O)O; Pyruvoyl = CC(=O)C(=O)*; Cbz = O=C(OCc1ccccc1)*; OBn = c1ccc(CO*)cc1

For this assay, the system named is NCI-H322M lung. Briefly: NCI-60 cell line screen, 48 h.
Consider `COc1ccc(-c2ccc(-c3ccc(C(=N)N)nc3)s2)cc1`, for which the GI50 was 1.59 µM and the TGI was 2.96 µM. Consider `COc1cc2c(cc1OC)-c1[nH]c3ccc(C#N)cc3c1CC(=O)N2`, for which the TGI was more than 100 µM. Same read-out and setting: for `Cc1nn2c(=O)c([N+](=O)[O-])c(/C=C/c3ccccc3)nc2s1` the value was 29.7 µM.

Molecule `CCCCCC(=O)Nc1n[nH]nc1C(N)=O` had a TGI of more than 100 µM. The same measure, in the same setting: next, `CC1=NC(=O)C(C)(c2ccccc2)N1CCc1ccccc1` (configuration not stated): more than 100 µM; `C/C(=N\N)C(CN(C)C)C(c1ccccc1)c1c(O)c2ccccc2oc1=O` (configuration not stated): more than 100 µM. `COc1ccc(Cn2nc(-c3cc(OC)c(OC)c(OC)c3)c3c2CCc2cnoc2-3)cc1OC`: the GI50 was 58.1 µM and the TGI is more than 100 µM. For `N#CSc1ncnc2nc[nH]c12` the same measures were 12.4 µM and more than 100 µM. On to `O=C(CC1Sc2ccccc2NC1=O)Nc1cc(Cl)ccc1Cl` (configuration not stated), for which the TGI is more than 100 µM.

Turning to `O=c1cc(CNc2cc(F)cc(F)c2)c2ccc(I)cc2[nH]1`, the GI50 is 0.896 µM and the TGI was more than 100 µM. `CC(C)(C(=O)NN)c1ccccc1` registered a TGI of more than 100 µM.

For `CCOC(=O)c1ccc(C(=O)OCC)n1-c1cc2cc(c1)CSCc1cc(cc(-n3c(C(=O)OCC)ccc3C(=O)OCC)c1)CSC2`, the TGI was more than 10 µM.

On to `C=C1C(=O)C([Si](C)(C)C)=C2C=C(C)C3(CC3)C12C` (configuration not stated), for which the TGI is more than 100 µM.

`COc1cc(OCc2ccc3nc(-c4ccccc4)c(N)nc3c2)cc(OC)c1OC` displayed a TGI of 45.4 µM. For `COc1cc2cc(Oc3ccc(NC(=O)Nc4ccc(Cl)c(C(F)(F)F)c4)cc3)c(C)nc2cc1OCCN1CCCCC1`, the GI50 is 1.78 µM and the TGI was 3.18 µM.

Turning to `O=C(O)CS(=O)(=O)C(c1ccccc1)c1ccccc1`, the TGI was more than 100 µM. As to `O=C(Nc1cccc(Cl)c1)Nc1ncc(CCNc2ncnc3ccsc23)s1`, the GI50 was 12.3 µM and > 10 µM; the TGI was 26 µM and > 10 µM.

As for `c1ccc2[nH]c(-c3ccc(N4CCN(c5ccc(-c6nc7ccccc7[nH]6)cc5)CC4)cc3)nc2c1`, the GI50 was more than 100 µM and the TGI is more than 100 µM. For the molecule `Fc1ccc(-c2nc3n(c2-c2ccncc2)CCS3)cc1`, the GI50 was more than 25 µM and the TGI is more than 25 µM.

Consider `COc1ccc(/C=C2\OC(=O)C(Cl)=C2c2ccc(OC)cc2)cc1`, for which the TGI is more than 100 µM. The molecule `CCOC(=O)/C(O)=C(/C=N\C(=S)Nc1ccccc1Cl)C(=O)OCC` yielded a TGI of more than 100 µM. Regarding `CC12CCC=CC1CCC1C2CCC2(C)C(c3ccc(=O)oc3)CCC12O` (configuration not stated), the GI50 is 0.0988 µM and the TGI is 0.722 µM. `O=C1C/C(=C/c2ccc(/C=C3/CC(=O)N(c4cccc(Br)c4)C3=O)cc2)C(=O)N1c1cccc(Br)c1` registered a TGI of more than 100 µM. For the molecule `COc1cc2nc(Cl)nc(Nc3cccc(C(=O)/C=C/c4ccccc4)c3)c2cc1OC`, the GI50 was more than 45.2 µM and the TGI was more than 100 µM. The corresponding values for `CCN=C1C=CC(=C(c2ccc(N(C)C)cc2)c2ccc(N(C)C)cc2)c2ccccc21` are 0.17 µM and 0.601 µM. Molecule `Nc1ncnc2c1ccn2C1OC2COP(=O)(O)OC2C1O` (configuration not stated) gave a TGI of 24.4 µM. For `c1csc(-c2cscc2-c2ccsc2)c1`, the TGI is more than 100 µM. Same read-out and setting: for `Cc1nc2sc(CCl)nn2c(=O)c1Cl` the value was 30.5 µM. Still for that read-out and setting: next, `CSC1=N[C@H](c2ccccc2)CS1`: more than 100 µM. The same measure, in the same setting: next, `COC(=O)CNC(=O)C(C)NC(=O)C(CC(=O)OCc1ccccc1)NC(=O)OCc1ccccc1` (stereo not drawn) (Cbz-Asp(OBn)-Ala-Gly-OMe; configuration not given here): more than 100 µM; `NCC1(N2CCOCC2)C2CCCC21CO` (configuration not stated): more than 100 µM. For the molecule `O=C(CCN1CCCC1)Nc1ccc2c(NCc3ccc(F)cc3)c3ccccc3nc2c1`, the GI50 was 0.405 µM and the TGI amounted to 1.73 µM. Molecule `CCOC(=O)c1nc2ccc(C(F)(F)F)cc2nc1NCc1ccc(Cl)c(Cl)c1` yielded a TGI of more than 100 µM. Consider `O=C(CCl)c1ccc([N+](=O)[O-])o1`, for which the GI50 is 15.6 µM and the TGI stood at 31.5 µM. `O=C(NO)c1ccc([N+](=O)[O-])cc1` displayed a TGI of more than 100 µM. For `CCN(CC)CCOc1ccc(C(=C(C)c2ccc(Cl)cc2)c2ccc(OCCN(CC)CC)cc2)cc1`, the GI50 was 0.801 µM and the TGI stood at 2.3 µM. `OCC1OC(n2ccc3c2ncn2ncnc32)C(O)C1O` (configuration not stated): the GI50 is 2.79 µM and the TGI was more than 92.7 µM.

As to `CC(C)=CCCC1(C)C=Cc2c(c(C)cc3c2[nH]c2cc(O)ccc23)O1` (configuration not stated), the TGI was more than 25 µM.

`CCc1ccc(NCc2cc(OC)c(OC)c(OC)c2)cc1`: the TGI was more than 100 µM. Turning to `CN(C)CCCNC(=O)c1cc(NC(=O)CCNS(=O)(=O)c2ccc3c(c2)C(=O)c2ccccc2C3=O)cn1C`, the GI50 was more than 100 µM and the TGI was more than 100 µM. For `CCN1C(=O)N(CC)C2C1NN=c1s/c(=C3\C(=O)N(C(C)C)c4ccccc43)c(=O)n12` (configuration not stated), the GI50 was 0.795 µM and the TGI was more than 100 µM. `CCCC(O)[C@@H](O)c1ccc2c(c1O)C(=O)c1c(OC)cccc1C2=O` (some centres not stated) had a TGI of more than 100 µM.

Regarding `CCOC(=O)Cc1c[nH]c(=S)[nH]c1=O`, the GI50 is more than 100 µM and the TGI was more than 100 µM. Take `O=C1c2ccccc2C(=O)N1CC1(C(=O)O)NCCS1(=O)=O` (configuration not stated): the TGI was more than 100 µM. Same read-out and setting: for `C=CCONC(=O)c1ccc(Cl)cc1` the value was more than 100 µM. Same read-out and setting: next, `c1ccc(Nc2nnc(CSc3nc(-c4ccccc4)c(-c4ccccc4)[nH]3)s2)cc1`: 94.8 µM. With `N#Cc1ncc(/N=C/c2ccc(N(CCCl)CCCl)cc2)s1`, the GI50 was more than 100 µM and the TGI is more than 100 µM. On to `C[C@]12CC[C@H]3[C@@H](CCC4=CC(=O)CC[C@@H]43)[C@@H]1CC[C@@H]2OC(=O)N(CCCl)N=O`, for which the GI50 is 5.59 µM and the TGI was 35 µM. Turning to `COc1cc(Cn2cc3c(c2)-c2oncc2CC3)cc(OC)c1OC`, the GI50 was 0.0324 µM. In turn, `CCOC(C[C@H](O)[C@H]1COC(=S)S1)OCC` registered a TGI of more than 100 µM. The same measure, in the same setting: for `CN(C)c1ccc2c(NCCCCCCNc3ccnc4cc(N(C)C)ccc34)ccnc2c1` the value was 84.7 µM. In the case of `C=C(C)[C@@H]1CC[C@]2(C(=O)NCCCN)CC[C@]3(C)[C@H](CC[C@@H]4[C@@]5(C)CC[C@H](O)C(C)(C)[C@@H]5CC[C@]43C)[C@@H]12`, the GI50 is 17.6 µM and the TGI is 36.1 µM. The corresponding values for `CN(C)c1ccc2nc3ccc(=[N+](C)C)cc-3oc2c1` are 2.3 µM and 12 µM. For `Fc1ccc2[nH]cc(Cc3c[nH]c4ccc(F)cc34)c2c1` the same measures were 17.8 µM and 44.4 µM. Consider `NC(=S)NNC(=O)/C(=C/c1ccc(/C=C(\NC(=O)c2ccccc2)C(=O)NNC(N)=S)cc1)NC(=O)c1ccccc1`, for which the TGI was more than 100 µM.

Regarding `O=S1(=O)c2cnccc2NC(=NCc2cccc3ccccc23)N1c1ccccc1`, the TGI is more than 100 µM. On to `CCOC(=O)CCC(NC(=O)Cc1ccc(Nc2nc3ccccc3nc2-c2ccccc2)cc1)C(=O)OCC` (configuration not stated), for which the TGI is more than 100 µM. Turning to `N=C(N)c1nn(C2OC(CO)C(O)C2O)c2nc[nH]c(=O)c12` (configuration not stated), the GI50 is 0.354 µM and the TGI turned out to be 3.28 µM. For the molecule `COc1ccc(/C=C(\Cl)c2ccc(OC)c(OC)c2)cc1OC`, the TGI is more than 100 µM. On the same count and under the same terms, for `O=C(O)C1C(C(=O)O)C2C(=O)C=CC1N2Cc1ccccc1` (configuration not stated) the value was 23.8 µM; for `CC[C@H](C)[C@H]1NC(=O)[C@@H](NC(=O)[C@@H](CC(C)C)N(C)C(=O)[C@@H]2CCCN2C(=O)C(C)=O)[C@@H](C)OC(=O)[C@H](Cc2ccc(OC)cc2)N(C)C(=O)[C@@H]2CCCN2C(=O)[C@H](CC(C)C)NC(=O)[C@H](C(C)C)OC(=O)C[C@@H]1O` (Pyruvoyl-P[dNMeL]T[X35][Hiv]LP[NMeY](Me); ester 3-C), 0.0448 µM. On the same count and under the same terms, next, `NS(=O)(=O)c1cc2c(cc1Cl)NC(C(=O)c1cc(=O)c3ccc(O)cc3o1)=NS2(=O)=O`: more than 100 µM. Same read-out and setting: next, `CC1=CC(=O)c2c(O)cccc2C1=O`: 30 µM; `NC(=O)c1cc2ccccc2oc1=Nc1ccccc1`: more than 100 µM.

In the case of `CSc1nc2ccccc2c(=O)n1/N=C1\C(=O)N(CN2CCCCC2)c2ccc(Cl)cc21`, the TGI is more than 100 µM. Same read-out and setting: next, `COC12C=CC(CC1)c1c(O)ccc(O)c12` (configuration not stated): more than 100 µM. `CSc1nnc(CCSc2ccnc3c(C(F)(F)F)cccc23)o1`: the GI50 is more than 100 µM and the TGI is more than 100 µM. The molecule `O=C(c1ccc(Cl)cc1Cl)N(C(=O)N1CCC(c2ccccc2)CC1)c1ccccc1` returned a TGI of more than 100 µM. Same read-out and setting: for `COc1cc(/C=C/C(=O)c2sc(-n3nc(-c4ccccc4)cc3-c3ccccc3)nc2C)ccc1O` the value was more than 100 µM.

Turning to `CCCN(Cc1ccc(F)cc1)c1ccc(CO)c(Cl)c1`, the GI50 is 7.17 µM and the TGI came to 20.5 µM. The corresponding values for `COc1cccc(OC(=O)c2ccccc2Nc2ccnc(C(F)(F)F)c2)c1` are 7.37 µM and 51.7 µM. The corresponding values for `CCc1c(C)[nH]c(/C=C2\N=C(c3ccc[nH]3)C=C2OC)c1C` are 2.21 µM and 17.6 µM. The corresponding values for `N#CC(C#N)=CN1CCN(C(=O)c2ccco2)C1=S` are 15.5 µM and 37.7 µM. On to `Clc1cccc(Cl)c1C=NC12CC3CC(CC(C3)C1)C2`, for which the TGI is more than 10 µM. As for `C=C1C(=O)O[C@@H]2C1CC(=O)C(C)CC/C=C(\C)CCC[C@H](C)[C@H]2OC(C)=O` (some centres not stated), the GI50 was 16.3 µM and the TGI worked out at 31.2 µM. `CN(C)c1ccc(/C=C/C=C\C2=CC(=C\C=C/C=C3C=CC(=[N+](C)C)C=C3)/Sc3ccccc32)cc1` gave a TGI of more than 100 µM. On the same count and under the same terms, for `O=C(O)[C@@H]1C2CC([C@@H]1C(=O)O)[C@H](N1C(=O)CCC1=O)[C@@H]2Br` (some centres not stated) the value was more than 100 µM; for `CCOC(=O)/C(N=Nc1ccc(-n2c(C)nc3ccccc3c2=O)cc1)=C(/C)O`, more than 100 µM; for `COC(=O)[C@@H]1CSC(=S)N1C(=O)C[C@H]1CC=CC[C@H]1CC(=O)Sc1ccccc1`, 56 µM. Still for that read-out and setting: next, `CC1Oc2cc3c(-c4c(O)cc(O)c5c(O)c6c(cc45)OC(C)C(C)C6=O)c(O)cc(O)c3c(O)c2C(=O)C1C` (configuration not stated): 2.05 µM.

As for `CCCN1C(=O)/C(=c2\sc3n(c2=O)C2C(NN=3)N(CC)C(=O)N2CC)c2ccccc21` (configuration not stated), the GI50 is 2.4 µM and the TGI is more than 59.1 µM.

The values are drawn from PubChem BioAssay (NCI).
